# Measurements taken from PubChem BioAssay AID445 (National Center for Advancing Translational Sciences (NCATS), 2006).
# In all, about 110,000 compounds went through this assay and about 40 (0.04%) were called active. Inconclusive results, whose numbers are uncertain, are shown with a selection of clear calls. Calls follow the shape of the dose curve; as a rule, active = well fitted curve in the direction sought with a large enough effect in the signal ratio (not every such curve was filed as active); inconclusive = small, poorly fitted or top-dose-only effect, or a change in a side signal; inactive = flat fitted curve, though single readings scatter; the % refers to the signal ratio. Potencies of inconclusive entries are doubtful fits and often do not repeat.
# Assay: IkB Signaling;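 as to IkBa stabilization activation: 0% = basal untreated cells and 100% = reference inhibitor full response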
# Settings: ABC-DLBCL IkBa-CBG/CBR dual luciferase ratio (green luciferase fused to IkBa over red control in OCI-Ly3 lymphoma cells), 4 h; IkBa stabilization activation: at 57.1 µM (top of the series), scaled: untreated 0%, proteasome inhibitor 100% unless noted
# Method in brief: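 In this assay, an IκBα–CBG68 fusion accumulates when IKK-driven degradation is blocked; native CBR normalizes for cell number. OCI-Ly3 cells were treated 4 h with compound and doxycycline, then green and red light read after Chroma-Glo addition.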
# Potency is read from the fitted curve at half-maximal effect.
SMILES,IkBa stabilization activation,Potency
CN(C)c1ccc(CNC(=O)c2ccc3c(c2)N(C)C(=O)C2CCCCN32)cc1 (centres undefined),inactive: 8.07%,
CCOc1ccccc1N1CC(c2nc3ccccc3n2CCCCOc2cc(C)ccc2C)CC1=O (centres undefined),inconclusive: -2.54% [signal inhibitor],
Cc1ccc2c(c1)c1ncnc(N3CCc4ccccc4C3)c1n2C,inconclusive: -2.12% [signal inhibitor],
CCOc1ccccc1-n1c(SCC(=O)N2CCCC2)nnc1-c1ccoc1C,inconclusive: 12.6% [signal inhibitor],
Cn1cccc1C(=O)N1CCC[C@@]2(CCN(Cc3cc(C(F)(F)F)cc(C(F)(F)F)c3)C2)C1,"inactive: 0.443% [at 11.4 µM, scaled: untreated 0%, proteasome inhibitor 100%]",
CCOC(=O)c1cnc2c(C)cc(C)cc2c1Nc1ccc(OCc2ccccc2)cc1,inconclusive: 4.46% [signal inhibitor],
O=C(CN1CCN(CC(=O)Nc2ccccc2F)CC1)Nc1ccc(Cl)c(C(F)(F)F)c1,inconclusive: 5.06% [signal inhibitor],
CCc1nnc(NC(=O)CSc2nnc(-c3ccccc3O)n2-c2ccc(C)cc2)s1,inactive: 4.45%,
Cn1c2ccccc2c2nnc(SCN3C(=O)c4ccccc4C3=O)nc21,inconclusive: 0.344% [signal activator],
CCC(C)C1C(C#N)=C(N)Oc2n[nH]c(-c3ccccc3)c21 (centres undefined),inactive: 6.83%,
CCCCCC1NC(=O)NC1CCCCCC(=O)O (centres undefined),inactive: 3.26%,
Cc1c(CNCCCc2ccccc2)c(C(=O)O)c(C)n1Cc1cccc(Cl)c1,inconclusive: 1.17% [signal inhibitor],
Cc1ccc(C)c(NC(=O)Nc2csc3c2CCCC3)c1,inactive: -2.92%,
OC[C@@H]1O[C@@H](n2cnc3c(NC4CCCC4)ncnc32)[C@@H](O)[C@H]1O,,"inconclusive: 20 µM [rising, partial curve]"
CCC1=C(c2ccc(C)cc2)S(=O)(=O)N=C1N1CCC(C(=O)N2CCCCC2)CC1,inconclusive: 0.658% [signal inhibitor],
CCN(CC)S(=O)(=O)c1ccc2oc(SCC3CN=C(c4ccc(OC)cc4)S3)nc2c1 (centres undefined),inconclusive: 3.68% [signal inhibitor],
CCn1c(=O)n(CC(=O)NCc2ccccc2OC)c(=O)c2ccccc21,,"inconclusive: 2.51 µM [signal inhibitor, partial curve]"
CN(Cc1ccccc1)c1ccc(-c2nc(-c3cccnc3)no2)cc1[N+](=O)[O-],inconclusive: -2.65% [signal inhibitor],
CCN(Cc1ccccc1)S(=O)(=O)c1ccc2[nH]c3c(c2c1)CCCCC3,inconclusive: 0.549% [signal inhibitor],
CCC(C(=O)NCCc1cc(OC)ccc1OC)n1nc(C)c2sc3ccccc3c2c1=O (centres undefined),inconclusive: 6.92% [signal inhibitor],
Cc1ccc(C)c(N2CCN(C(=O)C3CCN(S(=O)(=O)c4cccc5nsnc45)CC3)CC2)c1,inconclusive: 4.03% [signal inhibitor],
CCCCOc1ccc(C(=O)NCCc2csc(-c3ccc(OC)cc3)n2)cc1,inconclusive: 4.94% [signal inhibitor],
Cc1ccc(C(=O)CSc2nnc(CNc3nc(-c4ccccc4)cs3)n2C)cc1,inconclusive: 6.46% [signal inhibitor],

SMILES,IkBa stabilization activation,Potency
COc1ccccc1NC(=O)Nc1ccc(Br)cn1,inconclusive: 12.8% [signal inhibitor],
O=C(NCc1ccc(F)cc1)C(=O)NCC(c1cccs1)S(=O)(=O)c1cccs1 (centres undefined),inactive: -1.41%,
c1cnc2c(OCc3nc4ccccc4[nH]3)cccc2c1,,"inconclusive: 12.6 µM [signal inhibitor, partial curve]"
Cc1ccc(NS(=O)(=O)c2ccc3[nH]c4c(c3c2)CCCCC4)cc1,inconclusive: -7.65% [signal inhibitor],
c1ccc(CNc2ncnc3nc[nH]c23)cc1,"inactive: 4.84% [at 25.6 µM, scaled: untreated 0%, proteasome inhibitor 100%]",
Cc1ccc(OCc2cc(=O)n3cc(C)sc3n2)c(C)c1,inactive: -0.239%,
CC(=O)N1CCc2cc(S(=O)(=O)N3CCN(c4ccc(C)cc4)C(C)C3)ccc21 (centres undefined),inconclusive: 7.55% [signal inhibitor],
CCc1ccc(OCC(=O)Nc2ccc(Cl)c(-c3nc4ncccc4o3)c2)cc1,,inconclusive: 25.1 µM [signal inhibitor]
COc1ccc2c(c1)S/C(=C\C(=O)c1ccncc1)N2C,inactive: -3.38%,
CCOc1ccc(S(=O)(=O)NCC(c2cccs2)S(=O)(=O)c2ccc(C)cc2)cc1 (centres undefined),inconclusive: 12.4% [signal inhibitor],
Cc1ccc(C)c(N(C)S(=O)(=O)c2ccc3[nH]cc(C(=O)NC4CCCC4)c(=O)c3c2)c1,inconclusive: 3.04% [signal inhibitor],
Cc1oc(-c2ccc(Cl)cc2)cc1-c1nn2c(-c3ccoc3C)nnc2s1,inactive: 1.02%,
CC(C)(C)NC(=O)CCSc1nc(-c2ccc3c(c2)OCO3)cc(C(F)(F)F)n1,inconclusive: 4.22% [signal inhibitor],
COc1cccc2sc(N(Cc3cccnc3)C(=O)c3ccc(S(=O)(=O)N(C)C)cc3)nc12,inconclusive: 0.826% [signal inhibitor],
COc1ccccc1CNC(=O)c1cc2cc(S(=O)(=O)N3CCCCC3)ccc2n1C,inconclusive: 0.981% [signal inhibitor],
COc1cc2c(cc1OC)C(c1cc(OC)c(O)c(OC)c1)CC(=O)N2 (centres undefined),inactive: -2.24%,
O=C(O)CCCSc1ccccc1,"inactive: -3.38% [at 11.4 µM, scaled: untreated 0%, proteasome inhibitor 100%]",
Cc1ccc(-c2c(C)n3c4c(=O)n(C)c(=O)n(C)c4nc3n2CCCO)cc1,inconclusive: 3.95% [signal inhibitor],
O=C(CCn1cnnn1)Nc1ccccc1,inconclusive: 6.11% [signal inhibitor],
COc1cc(-c2csc(C)n2)ccc1O,inconclusive: 2.69% [signal activator],
CCOc1ccc(NC(=O)C2CCCN(S(=O)(=O)c3ccc(Br)s3)C2)cc1 (centres undefined),inconclusive: 2.15% [signal inhibitor],
CC(=O)N1c2c(cc(Br)cc2S(=O)(=O)Nc2ccccc2C)CC1C (centres undefined),inconclusive: 5.34% [signal inhibitor],
COc1ccc(C2SCCN2S(=O)(=O)c2ccccc2)cc1OC (centres undefined),inconclusive: 4.36% [signal inhibitor],

SMILES,IkBa stabilization activation,Potency
CCOc1cc(Br)c(C2C(C(=O)OC)=C(C)NC3=C2C(=O)c2ccccc23)cc1OCC (centres undefined),inconclusive: 7.32% [signal inhibitor],
O=C(Nc1cccc(C(F)(F)F)c1)c1ccc(F)c(S(=O)(=O)N2CCc3ccccc3C2)c1,inconclusive: -0.401% [signal inhibitor],
Cc1nn(Cc2ccccc2)c(Cl)c1C(=O)OCc1nnc(-c2ccccc2)o1,inconclusive: 6.62% [signal inhibitor],
COc1cccc(Cn2cnc3c2c(=O)n(C)c(=O)n3C)c1,inactive: 1.13%,
COc1ccc(-c2nc(C)c(CCNC(=O)c3ccccc3Br)s2)cc1OC,inactive: 0.722%,
CC(=O)N1CCCc2cc(S(=O)(=O)N3CCC(N(C)C(C)C)CC3)ccc21,inactive: 3.14%,
COc1ccc(OC)c(-c2cc(C(=O)Nc3cc(C)on3)no2)c1,inactive: -1.75%,
Cc1cc(Nc2cccc(O)c2)c2cccc(Br)c2n1,inconclusive: -0.666% [signal inhibitor],
CCOc1ccc(OCC(=O)c2c(O)c3ccccc3oc2=O)cc1,,"inconclusive: 0.794 µM [signal inhibitor, full curve]"
CCc1ccc(S(=O)(=O)c2cn(CC(=O)Nc3cccc(C)c3)c3ccc(Cl)cc3c2=O)cc1,inactive: 1.41%,
COc1nnc(-c2ccc(N3CCCCC3)c(NC(=O)c3ccc(Cl)cc3)c2)c2ccccc12,inconclusive: 11% [signal inhibitor],
CCc1cc(=O)[nH]c(SCc2nc(-c3ccccc3C)no2)n1,inconclusive: 0.601% [signal inhibitor],
CCOC(=O)C1CCN(c2ncnc3c2c(-c2ccccc2)cn3-c2ccc(C)c(Cl)c2)CC1,inactive: 0.72%,
CC1CC(C)CN(C(=O)CSc2nnc(-c3ccc(F)cc3)o2)C1 (centres undefined),inactive: -4.74%,
COc1ccc(OC)c(NC(=O)c2nc(SCc3ccc(F)cc3)ncc2Cl)c1,inconclusive: 0.754% [signal inhibitor],
O=C(NCCc1csc(-c2ccc(F)cc2)n1)C(=O)Nc1ccc(Cl)cc1,inconclusive: 9.88% [signal inhibitor],
Cc1c(C(=O)Nc2cccc(C(F)(F)F)c2)oc2ccc(S(=O)(=O)N(C)C3CCCCC3)cc12,inconclusive: 1.49% [signal inhibitor],
O=C(CC1C(=O)N(c2ccccc2)C(=O)N1CCc1cccs1)Nc1ccc(Cl)cc1 (centres undefined),inconclusive: -0.483% [signal inhibitor],
CCNC(=O)c1ccc(-n2c(-c3ccccc3)cc3c2CCCCC3)cc1,inconclusive: 0.06% [signal inhibitor],
COc1ccc(OC)c(NC(=O)[C@H](Cc2ccccc2)N2Cc3ccccc3C2=O)c1,inconclusive: 2.98% [signal inhibitor],
Cn1c(=O)c2[nH]c(CCC(=O)O)nc2n(C)c1=O,"inactive: 0.17% [at 11.4 µM, scaled: untreated 0%, proteasome inhibitor 100%]",
Brc1ccc(Oc2nnnn2-c2ccccc2)cc1,inactive: 0.232%,
COc1ccc(CNc2ncncc2-c2cccc(NS(C)(=O)=O)c2)c(OC)c1,"inactive: -0.892% [at 11.4 µM, scaled: untreated 0%, proteasome inhibitor 100%]",
